The full ranking holds about 110,000 compounds; the median of “z-score” is about -0.1, and the highest 2% start at about 2. This is one part of the list.
The molecules below were run against Metabotropic glutamate receptor 8 (Rattus norvegicus) (UniProt P70579) (assay: rat mGluR8 modulators via GIRK flux, primary screen, cell-based, thallium flux, HTS (AID 488969)). Conditions: HEK293 rat mGluR8, GIRK (G protein-gated inwardly rectifying potassium channel) thallium flux, FluoZin2; at 10 µM; stronger effect = higher value; submaximal glutamate (EC20) added with thallium.
Sequence of UniProt P70579 (P70579 whole entry, looked up): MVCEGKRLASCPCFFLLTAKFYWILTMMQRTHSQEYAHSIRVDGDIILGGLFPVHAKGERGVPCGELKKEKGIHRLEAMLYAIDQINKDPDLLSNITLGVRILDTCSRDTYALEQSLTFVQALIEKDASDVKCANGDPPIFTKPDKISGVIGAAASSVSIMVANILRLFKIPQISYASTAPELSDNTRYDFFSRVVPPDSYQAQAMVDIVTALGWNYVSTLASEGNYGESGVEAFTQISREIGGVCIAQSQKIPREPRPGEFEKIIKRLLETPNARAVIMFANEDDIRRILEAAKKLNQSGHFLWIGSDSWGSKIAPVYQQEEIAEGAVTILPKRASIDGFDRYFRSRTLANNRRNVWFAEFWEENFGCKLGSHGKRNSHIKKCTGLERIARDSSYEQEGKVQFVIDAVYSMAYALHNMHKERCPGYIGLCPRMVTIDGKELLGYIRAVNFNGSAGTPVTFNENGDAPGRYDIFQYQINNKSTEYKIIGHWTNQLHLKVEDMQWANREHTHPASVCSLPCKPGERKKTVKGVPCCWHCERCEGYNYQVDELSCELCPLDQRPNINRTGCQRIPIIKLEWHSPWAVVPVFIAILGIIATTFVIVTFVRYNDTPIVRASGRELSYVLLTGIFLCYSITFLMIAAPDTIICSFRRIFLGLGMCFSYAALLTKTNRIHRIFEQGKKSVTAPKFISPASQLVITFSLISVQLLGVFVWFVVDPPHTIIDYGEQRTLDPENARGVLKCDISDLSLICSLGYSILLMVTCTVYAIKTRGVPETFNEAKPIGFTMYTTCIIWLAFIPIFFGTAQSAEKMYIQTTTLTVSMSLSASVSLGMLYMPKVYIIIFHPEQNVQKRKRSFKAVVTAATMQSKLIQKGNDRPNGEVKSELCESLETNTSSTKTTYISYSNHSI

SMILES | z-score
COc1cccc(C2/C(=C(\O)c3ccc4c(c3)OCCO4)C(=O)C(=O)N2CCCN(C)C)c1OC (configuration not stated) | 0.00077
O=C(Nc1ccc2c(c1)Cc1ccccc1-2)c1cc2ccccc2o1 | 0.506
CC(=O)N1CCc2cc(S(=O)(=O)NCCCN3CCN(Cc4ccccc4)CC3)ccc21 | -0.184
Cc1noc(/C=C/c2ccco2)c1S(=O)(=O)N1CCC(C(=O)NCc2ccco2)CC1 | -0.937
O=C(Nc1cccnc1)c1ccc(NC(=O)c2ccco2)cc1 | -0.0558
O=C(NNC(=S)NCc1ccco1)c1cccs1 | 0.0115
C/C(=N/NC(=O)C1CC1(c1ccccc1)c1ccccc1)c1cccs1 (configuration not stated) | -0.154
O=C(Oc1ccc2c3c(c(=O)oc2c1)CCC3)c1ccccc1[N+](=O)[O-] | -0.1
Cc1nnc(SCC(=O)Nc2nsc(-c3ccc(Cl)cc3)n2)s1 | 0.147
CCc1nc2c3cnn(-c4cc(Cl)ccc4C)c3ncn2n1 | -0.413
Cc1ccc(NC(=O)c2ccc3c(c2)N(CC(=O)N2CCCCC2)C(=O)C(C)(C)O3)cc1 | -0.4
CSc1cc(C)n(-c2ccc(Cl)cc2)c(=S)c1C(C)=O | -0.101
CCN(Cc1ccccc1)C(=O)Cn1c(=O)n(CC(=O)NCc2ccco2)c(=O)c2sccc21 | -0.184
C/C=C(/C)C(=O)OC1c2c(ccc3ccc(=O)oc23)OC(C)(C)C1OC(C)=O (configuration not stated) | -0.21
CCCCNC(=O)C1CCCN1C(=O)Nc1ccccc1 (configuration not stated) | 0.0588
O=[N+]([O-])c1cc2oc3c(c2c(C=NCc2ccccc2)c1O)CCCC3 | -0.0638
O=C(Nc1ccccc1C(=O)NCc1ccco1)NC1CCCCC1 | -0.175
O=C(NNC(=S)NC(=O)c1ccccc1[N+](=O)[O-])c1ccccc1Cl | -0.333
COc1cc(Cl)c(C)cc1NC(=O)CSc1nnc(-c2ccccn2)n1Cc1ccco1 | -0.14
COc1nn(CC(=O)N2N=C(C)CC2(O)C(F)F)cc1[N+](=O)[O-] (configuration not stated) | -0.265
CC1CCC2(CC1)NC(CO)(CO)CO2 (configuration not stated) | 0.0471
CC(=O)N1CCN=C1SCc1ccccc1Cl | 0.0781
CCN(C(=O)COC(=O)c1ccc(OCc2c(C)noc2C)cc1)c1ccccc1 | -2

SMILES | z-score
CC1=CC(c2ccccc2)n2nc(N3C(=O)C4CC=CCC4C3=O)nc2N1 (configuration not stated) | -0.783
CCN(C(=O)c1cc2cccc(OC)c2oc1=O)C1CCCCC1 | -0.137
CC(C)c1ccc2c(c1)C(c1ccc(N3CCOCC3)cc1)=NNC(c1cccs1)=N2 | 0.382
Cc1ccc(/C=C(\C#N)c2nn(-c3ccccc3)c(N)c2C#N)cc1 | -0.255
COC(=O)C1=C(C)Nc2nnnn2C1c1ccccc1Cl (configuration not stated) | -2.07
CN(C(=O)c1ccncc1)C1CC(C)(C)N(O)C(C)(C)C1 | 0.566
CCCOc1ccc(OCCOCCN2CCc3ccccc3C2)cc1 | 0.597
O=C(Nc1ccccc1F)c1cc(S(=O)(=O)N2CCCCC2)cs1 | -0.167
O=C(c1ccc2c(c1)OCO2)N1CCN(c2ncccn2)CC1 | -0.381
CCOC(=O)N1CCC(NC(=O)c2cc3sccc3n2CC)CC1 | 0.349
Cc1cccc(C)c1N(CC(=O)N1CCN(C)CC1)S(C)(=O)=O | -0.00135
Cc1cc(NC(=O)CSc2nnc(-c3ccc(Br)o3)n2Cc2ccccc2)no1 | -1.65
CCCC(=O)NC1C2CC3CC(C2)CC1C3 (configuration not stated) | 0.313
COc1ccc(NC(=O)CSc2nc(N)c3cc4c(nc3n2)CCCC4)cc1 | -0.916
CCN(CCNc1ccc(Cl)cc1[N+](=O)[O-])C(=O)c1cc([N+](=O)[O-])c(N(C)C)cc1OC | 0.897
Cc1cccc(-c2nc3ccccc3c3nncn23)c1 | 1.07
Cc1cccc(N2CCN(C(=O)c3cc(C)oc3C)CC2C)c1 (configuration not stated) | 1.2
Cc1ccc(SCCC(=O)NCCSCc2ccccc2C)cc1 | -0.15
O=C(O)c1cccc(N/N=C/c2cccs2)c1 | -1.59
Cc1ccc(NC(=O)Cn2c(/C=C/c3ccccc3)nc3ccccc32)cc1C | -0.495
O=c1cc(/N=C/c2coc3c(ccc4ccccc43)c2=O)[nH]c(=S)[nH]1 | 0.013
COc1cccc(/C(O)=C/c2nc3ccc(C(=O)NCCc4ccc(Cl)cc4)cc3[nH]c2=O)c1 | -0.143
Cc1ccc(-c2nn3c(C)nnc3s2)cc1NC(=O)c1ccc(-c2cccc(Cl)c2)o1 | -0.98

SMILES | z-score
O=C(Nc1ccccc1)c1ccc(N2CCN(c3ccccn3)CC2)c(S(=O)(=O)N2CCOCC2)c1 | -0.415
CCOC(=O)c1c(NC(=O)C2COc3ccccc3O2)sc(C)c1C (configuration not stated) | 0.0349
COc1cc(NC(=S)N2CCCC(CO)C2)c(OC)cc1Cl (configuration not stated) | -0.0639
N#CC1=C2SCN(Cc3ccco3)CN2C(=O)CC1c1cccc2ccccc12 (configuration not stated) | 0.457
CC(C)c1nc(SCC(=O)Nc2ccc3c(c2)OCCO3)c2c(=O)n(C)c(=O)n(C)c2n1 | -0.492
Cn1c(SCc2nc(-c3ccccc3)no2)nnc1-c1ccco1 | -0.441
COc1ccccc1N1CCN(C(=O)c2ccc(Cl)c(S(=O)(=O)NCc3ccco3)c2)CC1 | -0.264
Cc1cccc2[nH]c3c(N4CCN(C(=O)c5ccco5)CC4)ncnc3c12 | -0.406
CC(C)(C)NC(=O)C(c1ccncc1)N(Cc1cccs1)C(=O)Cn1nnc(-c2cccs2)n1 (configuration not stated) | -0.0939
C/C(CC(=O)Nc1ccc(OCc2ccccc2)cc1)=N\NC(=O)C(=O)Nc1ccccc1C | 0.266
CC(C)(C)NC(=O)CSc1nncn1NCc1c(Cl)cccc1Cl | -0.104
CCOC(=O)c1c(NC(=O)c2ccnn2C)sc(C)c1C | -0.247
Nc1ccc(N2CCN(CCCCN3C(=O)C4CCCN4C3=O)CC2)cc1 (configuration not stated) | -0.207
[O-]C1=N/[N+](=C/c2ccc(Cl)c(Cl)c2)CC1 | 0.124
Cc1csc(NC(=O)CCN2C(=O)c3ccccc3S2(=O)=O)n1 | -0.105
Cc1ccc(Cl)cc1N1CCN(C(c2cccnc2)c2nnnn2C2CCCCC2)CC1 (configuration not stated) | 0.333
CC(C)Oc1ccc(C(=O)Nc2nnc(SCC(=O)N3CCOCC3)s2)cc1 | -0.138
CN1C(=O)CSc2ccc(C(=O)O)cc21 | 0.419
CCC(C)c1ccccc1NC(=O)COC(=O)c1ccc(C)c(NC(=O)c2ccco2)c1 (configuration not stated) | -0.223
C/C(=N\Nc1ccc([N+](=O)[O-])cc1)c1ccc(N)cc1 | 0.518
CC(C)c1ccc(/C=N/NC(=O)c2nnn(-c3nonc3N)c2CSC2=NCCS2)cc1 | -0.289
